Assay results published in PubChem BioAssay AID2675 (National Center for Advancing Translational Sciences (NCATS), 2010).
About 100 (0.036%) of roughly 280,000 compounds were called active. Inconclusive results, whose numbers are uncertain, are shown with a selection of clear calls. The call rests on the fitted dose curve; in most records, active means well fitted inhibition curve with a large enough effect in the signal ratio, with a control signal flat (not every such curve was filed as active); inconclusive means small, poorly fitted or top-dose-only effect, or effect the other way, or a change in a side signal; inactive means no such curve, though single readings can be large or run the other way; the % refers to the signal ratio. Potencies beside an inconclusive call are fits to weak or partial responses and may not hold up. A note “side channel” means that the fit belongs to a control or component signal, not to the main read-out.

What follows are compounds tested against Muscleblind-like protein 1 (Homo sapiens) (UniProt Q9NR56) (assay: qHTS Assay for Inhibitors of MBNL1-poly(CUG) RNA binding). Details: TR-FRET MBNL1-His/biotin-(CUG)12 binding, 665/545 ratio; series mostly up to 57.5 µM.
Sequence of UniProt Q9NR56 (Q9NR56 whole entry, looked up): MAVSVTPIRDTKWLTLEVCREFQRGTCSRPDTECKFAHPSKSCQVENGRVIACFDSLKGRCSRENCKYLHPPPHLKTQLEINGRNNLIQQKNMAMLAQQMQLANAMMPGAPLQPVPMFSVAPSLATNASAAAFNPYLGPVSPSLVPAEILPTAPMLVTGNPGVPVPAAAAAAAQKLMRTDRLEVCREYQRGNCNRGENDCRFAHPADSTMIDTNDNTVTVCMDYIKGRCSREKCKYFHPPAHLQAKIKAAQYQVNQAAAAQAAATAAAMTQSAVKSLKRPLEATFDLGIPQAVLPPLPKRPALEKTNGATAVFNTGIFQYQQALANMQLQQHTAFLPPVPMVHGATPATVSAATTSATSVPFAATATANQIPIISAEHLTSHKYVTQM
How it was run: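 TR-FRET readout: Ex 340 nm, 665/545 nm emission ratio, normalized to buffer-only (basal) and MBNL1-(CUG)12 controls. Complex of MBNL1-His with Biotin-(CUG)12, compounds 92 nM–58 uM, incubated 60 min at room temperature.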
Potency means the concentration at half of the fitted maximal effect; tags describe the fitted curve by direction and shape or compound fluorescence and quenching.

Compound	Potency
CCN(C(=O)COC(=O)c1c(C)nn(-c2ccccc2)c1C)C1CCS(=O)(=O)C1 (centres undefined)	inactive
Cc1cc(C)n(C(=O)/C(C#N)=N\Nc2ccccc2[N+](=O)[O-])n1	inconclusive: 15.8 µM [quencher, partial curve]
COC(=O)c1ccc(C2/C(=C(\O)c3ccc4c(c3)OCCO4)C(=O)C(=O)N2c2nnc(C)s2)cc1 (centres undefined)	inconclusive: 25.1 µM [quencher, side channel, partial curve]
CCOC(=O)c1c(NC(=O)c2ccc(S(=O)(=O)N3CCOCC3)cc2)sc2c1CCN(C(C)C)C2	inconclusive: 15.8 µM [quencher, side channel, partial curve]
COc1ccc(-n2nc(C(=O)NCC(=O)NCCCN3CCC(C)CC3)c3ccccc3c2=O)cc1Cl	inconclusive: 28.2 µM [quencher, side channel, single point]
CCOP(=O)(OCC)C(NC(=O)Nc1ccccc1)c1ccccc1 (centres undefined)	inactive
Cc1cc2c(c(=O)n1C)C(Cc1ccccc1)C(C#N)=C(N)O2 (centres undefined)	inconclusive: 25.1 µM [quencher, side channel, partial curve, poor fit]
Cc1c([N+](=O)[O-])cc(C(=O)Oc2ccc(Br)cc2C(=S)N2CCCCC2)cc1[N+](=O)[O-]	inconclusive: 25.1 µM [quencher, side channel, single point]
CCOC(=O)c1sc2nc(SCC(=O)NCc3ccco3)n(Cc3ccccc3)c(=O)c2c1C	inconclusive: 0.126 µM [fluorescent, side channel, partial curve]
COC(=O)NCc1ccc2c(c1)OCO2	inactive
O=C(Nc1ccc(Cl)cc1)c1ccc(-n2cncn2)c([N+](=O)[O-])c1	inconclusive: 0.398 µM [quencher, side channel, full curve, poor fit]
CN1CCN(c2nc3ccccn3c(=O)c2/C=C(\C#N)S(=O)(=O)c2ccccc2)CC1	inconclusive: 8.91 µM [quencher, partial curve]
Cc1ccc(S(=O)(=O)Oc2ccc(/C=N/NC(=O)c3cccnc3)cc2)cc1	inconclusive: 17.8 µM [quencher, side channel, partial curve, poor fit]
O=C1/C(=C/c2cccc(O)c2)SC(=S)N1CC1CCCO1 (centres undefined)	inactive
COc1ccc2[nH]c(=O)c(CN(c3ccccc3OC)S(=O)(=O)c3ccccc3)cc2c1	inconclusive: 39.8 µM [fluorescent, side channel, single point]
CNC(=O)c1cc2c(=O)n3cccc(C)c3nc2n(C(C)C)c1=N	inconclusive: 12.6 µM [quencher, side channel, partial curve]
CCN(CC(=O)NCc1ccc(F)cc1)C(=O)/C=C/c1ccc(S(=O)(=O)N(CC)CC)cc1	inconclusive: 31.6 µM [quencher, side channel, single point]
Cc1cc(-c2ccccc2)n2nc(C)c(C#N)c2n1	inactive
CC(=O)Nc1cccc(-c2nc3ccccc3s2)c1	inconclusive: 0.282 µM [quencher, side channel, full curve]
CCOC(=O)C1CCCN(C(=O)c2cnn3c(C(F)(F)F)cc(-c4ccccc4)nc23)C1 (centres undefined)	inactive

Compound	Potency
Cc1[nH]c2ccccc2c1/C=N/Nc1ccc([N+](=O)[O-])cc1	inconclusive: 11.2 µM [quencher, side channel, partial curve]
C=CCNc1nc(N2CCOCC2)nc(N2CCOCC2)n1	inconclusive: 3.98 µM [fluorescent, side channel, partial curve]
c1ccc(-c2csc3ncnc(N4CCc5ccccc5C4)c23)cc1	inactive
COc1ccc(-n2cc(C(=O)c3cc(Cl)ccc3O)cc(C#N)c2=O)cc1	inconclusive: 12.6 µM [quencher, side channel, partial curve]
Cc1cc(C)c2[nH]c(=O)c(C(c3nnnn3CC3CCCO3)N3CCCC(C)C3)cc2c1 (centres undefined)	inconclusive: 5.01 µM [quencher, side channel, full curve]
CC(C(=O)O)N1C(=O)/C(=C/c2cccn2C)SC1=S (centres undefined)	inconclusive: 39.8 µM [quencher, side channel, partial curve]
CCNCCC(=O)N1c2ccccc2Sc2ccc(NC(=O)OCC)cc21	inconclusive: 39.8 µM [inhibitor, single point]
O=c1c[n+]([O-])c2ccccc2n1OCc1c(F)cccc1F	inconclusive: 10 µM [quencher, side channel, partial curve]
CC(C)(C)NC(=O)CN1CCN(C(=O)CCl)CC1	inconclusive: 126 µM [inhibitor, partial curve]
COc1cccc(-c2nnc(Nc3nc4c(F)cccc4s3)o2)c1	inconclusive: 39.8 µM [fluorescent, side channel, single point]
Cc1ccc(NC(=S)Nc2cccc3ccccc23)cc1	inconclusive: 12.6 µM [quencher, side channel, partial curve]
CN(c1ccccc1)S(=O)(=O)c1ccc(C(=O)Nc2nnc(-c3ccc(F)cc3)o2)cc1	inactive
CCN(C(=O)C1CCCN1S(=O)(=O)c1cccc2nsnc12)c1ccccc1 (centres undefined)	inconclusive: 15.8 µM [quencher, side channel, partial curve]
COc1ccc(-c2cc(-c3cccs3)nc(OC)c2C#N)cc1OC	inactive
Nc1nc(-c2ccccc2)cs1	inactive
Cc1ccc(NC(=S)NC(=O)CC2CC(C)(C)OC2=O)cc1 (centres undefined)	inactive
Cc1cccc(C(=O)O/N=C(\N)c2ccccn2)c1	inactive
COc1ccc(CCNC(=O)CN(c2cccc([N+](=O)[O-])c2)S(C)(=O)=O)cc1	inconclusive: 20 µM [quencher, side channel, single point]
COc1ccc(C2C3=C(NCCN=C3c3ccccc3)C(=O)N2c2ccccc2)c(OC)c1 (centres undefined)	inconclusive: 31.6 µM [quencher, side channel, partial curve]
